{"source": "the supplement of paper PMC8728848", "experiment_in_all_cases": "glycan array binding signal (z-score within array); higher = stronger binding", "conditions_in_all_cases": "glycan notation: IUPAC condensed, linker removed", "key": {"[1]": {"biological_target": "Neu5Ac(a2-3)Gal(b1-3)GlcNAc6S", "procedure,_shortened": "(§1)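 Arrays were curated from the Consortium for Functional Glycomics database, 3228 in total, and kept only where the protein sequence was available. Binding is expressed as a within-array Z-score. This score was averaged across arrays of the same protein sequence at different concentrations or buffers and across linkers, and negative values can be read as non-binding.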"}, "[2]": {"biological_target": "Neu5Ac(a2-3)Gal(b1-3)[Fuc(a1-4)]GlcNAc", "procedure,_shortened": "as §1"}, "[3]": {"biological_target": "Neu5Ac(a2-3)Gal(b1-3)[Fuc(a1-4)]GlcNAc(b1-3)Gal(b1-3)[Fuc(a1-4)]GlcNAc", "procedure,_shortened": "as §1"}, "[4]": {"biological_target": "Neu5Ac(a2-3)Gal(b1-3)[Fuc(a1-4)]GlcNAc(b1-3)Gal(b1-4)[Fuc(a1-3)]GlcNAc", "procedure,_shortened": "as §1"}, "[5]": {"biological_target": "Neu5Ac(a2-3)Gal(b1-3)[GlcNAc(b1-6)]GalNAc", "procedure,_shortened": "as §1"}, "[6]": {"biological_target": "Neu5Ac(a2-3)Gal(b1-3)[Neu5Ac(a2-6)]GalNAc", "procedure,_shortened": "as §1"}, "[7]": {"biological_target": "Neu5Ac(a2-3)Gal(b1-3)[Neu5Ac(a2-6)]GlcNAc(b1-3)[Fuc(a1-3)[Gal(b1-4)]GlcNAc(b1-6)]Gal(b1-4)Glc", "procedure,_shortened": "as §1"}, "[8]": {"biological_target": "Neu5Ac(a2-3)Gal(b1-3)]Neu5Ac(a2-3)Gal(b1-4)]GlcNAc", "procedure,_shortened": "as §1"}, "Neu5Ac(a2-3)Gal(b1-4)Glc": {"biological_target": "Neu5Ac(a2-3)Gal(b1-4)Glc", "procedure,_shortened": "as §1"}, "[9]": {"biological_target": "Neu5Ac(a2-3)Gal(b1-4)GlcNAc", "procedure,_shortened": "as §1"}, "[10]": {"biological_target": "Neu5Ac(a2-3)Gal(b1-4)GlcNAc(b1-2)Man", "procedure,_shortened": "as §1"}, "[11]": {"biological_target": "Neu5Ac(a2-3)Gal(b1-4)GlcNAc(b1-2)Man(a1-3)[GlcNAc(b1-4)][Neu5Ac(a2-3)Gal(b1-4)GlcNAc(b1-2)Man(a1-6)]Man(b1-4)GlcNAc(b1-4)GlcNAc", "procedure,_shortened": "as §1"}, "[12]": {"biological_target": "Neu5Ac(a2-3)Gal(b1-4)GlcNAc(b1-2)Man(a1-3)[Neu5Ac(a2-3)Gal(b1-4)GlcNAc(b1-2)Man(a1-6)]Man(b1-4)GlcNAc(b1-4)GlcNAc", "procedure,_shortened": "as §1"}, "[13]": {"biological_target": "Neu5Ac(a2-3)Gal(b1-4)GlcNAc(b1-2)Man(a1-3)[Neu5Ac(a2-3)Gal(b1-4)GlcNAc(b1-2)Man(a1-6)]Man(b1-4)GlcNAc(b1-4)[Fuc(a1-6)]GlcNAc", "procedure,_shortened": "as §1"}, "[14]": {"biological_target": "Neu5Ac(a2-3)Gal(b1-4)GlcNAc(b1-2)Man(a1-3)[Neu5Ac(a2-6)Gal(b1-4)GlcNAc(b1-2)Man(a1-6)]Man(b1-4)GlcNAc(b1-4)GlcNAc", "procedure,_shortened": "as §1"}, "[15]": {"biological_target": "Neu5Ac(a2-3)Gal(b1-4)GlcNAc(b1-2)[Neu5Ac(a2-3)Gal(b1-4)GlcNAc(b1-4)]Man(a1-3)[GlcNAc(b1-4)][Neu5Ac(a2-3)Gal(b1-4)GlcNAc(b1-2)[Neu5Ac(a2-3)Gal(b1-4)GlcNAc(b1-6)]Man(a1-6)]Man(b1-4)GlcNAc(b1-4)GlcNAc", "procedure,_shortened": "as §1"}, "[16]": {"biological_target": "Neu5Ac(a2-3)Gal(b1-4)GlcNAc(b1-2)[Neu5Ac(a2-3)Gal(b1-4)GlcNAc(b1-4)]Man(a1-3)[GlcNAc(b1-4)][Neu5Ac(a2-3)Gal(b1-4)GlcNAc(b1-4)Man(a1-6)]Man(b1-4)GlcNAc(b1-4)GlcNAc", "procedure,_shortened": "as §1"}, "[17]": {"biological_target": "Neu5Ac(a2-3)Gal(b1-4)GlcNAc(b1-2)[Neu5Ac(a2-3)Gal(b1-4)GlcNAc(b1-6)]Man(a1-6)[Neu5Ac(a2-3)Gal(b1-4)GlcNAc(b1-2)Man(a1-3)]Man(b1-4)GlcNAc(b1-4)GlcNAc", "procedure,_shortened": "as §1"}, "[18]": {"biological_target": "Neu5Ac(a2-3)Gal(b1-4)GlcNAc(b1-2)[Neu5Ac(a2-3)Gal(b1-4)GlcNAc(b1-6)]Man(a1-6)[Neu5Ac(a2-3)Gal(b1-4)GlcNAc(b1-2)Man(a1-3)][GlcNAc(b1-4)]Man(b1-4)GlcNAc(b1-4)GlcNAc", "procedure,_shortened": "as §1"}, "[19]": {"biological_target": "Neu5Ac(a2-3)Gal(b1-4)GlcNAc(b1-3)Gal", "procedure,_shortened": "as §1"}, "[20]": {"biological_target": "Neu5Ac(a2-3)Gal(b1-4)GlcNAc(b1-3)Gal(b1-3)GlcNAc", "procedure,_shortened": "as §1"}, "[21]": {"biological_target": "Neu5Ac(a2-3)Gal(b1-4)GlcNAc(b1-3)Gal(b1-4)GlcNAc", "procedure,_shortened": "as §1"}, "[22]": {"biological_target": "Neu5Ac(a2-3)Gal(b1-4)GlcNAc(b1-3)Gal(b1-4)GlcNAc(b1-2)Man(a1-3)[Neu5Ac(a2-3)Gal(b1-4)GlcNAc(b1-3)Gal(b1-4)GlcNAc(b1-2)Man(a1-6)]Man(b1-4)GlcNAc(b1-4)GlcNAc", "procedure,_shortened": "as §1"}, "[23]": {"biological_target": "Neu5Ac(a2-3)Gal(b1-4)GlcNAc(b1-3)Gal(b1-4)GlcNAc(b1-3)Gal(b1-4)GlcNAc", "procedure,_shortened": "as §1"}, "[24]": {"biological_target": "Neu5Ac(a2-3)Gal(b1-4)GlcNAc(b1-3)Gal(b1-4)GlcNAc(b1-3)Gal(b1-4)GlcNAc(b1-2)Man(a1-3)[Neu5Ac(a2-3)Gal(b1-4)GlcNAc(b1-3)Gal(b1-4)GlcNAc(b1-3)Gal(b1-4)GlcNAc(b1-2)Man(a1-6)]GalNAc", "procedure,_shortened": "as §1"}, "[25]": {"biological_target": "Neu5Ac(a2-3)Gal(b1-4)GlcNAc(b1-3)Gal(b1-4)GlcNAc(b1-3)GalNAc", "procedure,_shortened": "as §1"}, "[26]": {"biological_target": "Neu5Ac(a2-3)Gal(b1-4)GlcNAc(b1-3)Gal(b1-4)GlcNAc(b1-3)[Neu5Ac(a2-3)Gal(b1-4)GlcNAc(b1-3)Gal(b1-4)GlcNAc(b1-6)]GalNAc", "procedure,_shortened": "as §1"}, "[27]": {"biological_target": "Neu5Ac(a2-3)Gal(b1-4)GlcNAc(b1-3)Gal(b1-4)GlcNAc(b1-6)[Gal(b1-3)]GalNAc", "procedure,_shortened": "as §1"}, "[28]": {"biological_target": "Neu5Ac(a2-3)Gal(b1-4)GlcNAc(b1-3)Gal(b1-4)[Fuc(a1-3)]GlcNAc", "procedure,_shortened": "as §1"}, "[29]": {"biological_target": "Neu5Ac(a2-3)Gal(b1-4)GlcNAc(b1-3)GalNAc", "procedure,_shortened": "as §1"}}, "note": "The other results are listed elsewhere or left out.", "data": [{"binder": "CvGal2 (Crassostrea virginica) (protein) MGSSHHHHHHSSGLVPRGSHMRIREAGKRKDTTKVYQIPDGLFPGQQVMLRGRVPWGSKSFSINFSATPRMGEGDILFHLNPRPSEGVCIRNALLNGSWGAEEKWQPYFPFDDGRSFSVKIEVTNDAFRTFVNGRPFVDFLHRTDFRAGKYLTLREGAEYYDVIFQSKPNIPLTTAIHNGMRIGKTIRIRGMCTAQDGFAINFNDNRNNIYFHFNARPAQRTVVRNSYFGSWGNEETAISKEFPFYPFLYFYASFVCMEDKFAVYVNDEHFIDFAHRGNPNNISVLQIKGSVNVLDTECLEPMGEDAMTEVDSGLENGDLFVLNGLMTERGKTFAVNFLNGFTENDDIALHFNPRKSTGEVVLNSRYGGAWQSEEKVALPGVFWSNRPLQVKVETKRNKFKIYVNGVDLAKYKIRGNVEDVHAVQVKGDVFLLETLLLKRLMKPVWERLTGGIRPGTWVTLQGTPKKNWQQFVVNFALDDTLDGDIAFHFNVRRGARQVVRNHRQSGAWGREETVTPFFAFDSEATFEIVFFVKEEKFLIYFNGKLFFEFVHRVPVERITHIYMDGDCNFYEPEVVI", "values": [{"measurement": "glycan array binding signal (z-score)", "setting": "[1]", "result": -0.333}, {"measurement": "glycan array binding signal (z-score)", "setting": "[2]", "result": -0.33}, {"measurement": "glycan array binding signal (z-score)", "setting": "[3]", "result": -0.321}, {"measurement": "glycan array binding signal (z-score)", "setting": "[4]", "result": -0.324}, {"measurement": "glycan array binding signal (z-score)", "setting": "[5]", "result": -0.342}, {"measurement": "glycan array binding signal (z-score)", "setting": "[6]", "result": -0.339}, {"measurement": "glycan array binding signal (z-score)", "setting": "[7]", "result": -0.311}, {"measurement": "glycan array binding signal (z-score)", "setting": "[8]", "result": -0.332}, {"measurement": "glycan array binding signal (z-score)", "setting": "Neu5Ac(a2-3)Gal(b1-4)Glc", "result": -0.334}, {"measurement": "glycan array binding signal (z-score)", "setting": "[9]", "result": -0.329}, {"measurement": "glycan array binding signal (z-score)", "setting": "[10]", "result": -0.234}, {"measurement": "glycan array binding signal (z-score)", "setting": "[11]", "result": -0.338}, {"measurement": "glycan array binding signal (z-score)", "setting": "[12]", "result": -0.336}, {"measurement": "glycan array binding signal (z-score)", "setting": "[13]", "result": -0.324}, {"measurement": "glycan array binding signal (z-score)", "setting": "[14]", "result": -0.326}, {"measurement": "glycan array binding signal (z-score)", "setting": "[15]", "result": -0.334}, {"measurement": "glycan array binding signal (z-score)", "setting": "[16]", "result": -0.338}, {"measurement": "glycan array binding signal (z-score)", "setting": "[17]", "result": -0.325}, {"measurement": "glycan array binding signal (z-score)", "setting": "[18]", "result": -0.333}, {"measurement": "glycan array binding signal (z-score)", "setting": "[19]", "result": -0.34}, {"measurement": "glycan array binding signal (z-score)", "setting": "[20]", "result": -0.342}, {"measurement": "glycan array binding signal (z-score)", "setting": "[21]", "result": -0.337}, {"measurement": "glycan array binding signal (z-score)", "setting": "[22]", "result": -0.31}, {"measurement": "glycan array binding signal (z-score)", "setting": "[23]", "result": -0.337}, {"measurement": "glycan array binding signal (z-score)", "setting": "[24]", "result": -0.302}, {"measurement": "glycan array binding signal (z-score)", "setting": "[25]", "result": -0.321}, {"measurement": "glycan array binding signal (z-score)", "setting": "[26]", "result": -0.323}, {"measurement": "glycan array binding signal (z-score)", "setting": "[27]", "result": -0.325}, {"measurement": "glycan array binding signal (z-score)", "setting": "[28]", "result": -0.34}, {"measurement": "glycan array binding signal (z-score)", "setting": "[29]", "result": -0.271}]}]}
